# According to article PMC10668032:
# The list shows a part of the results. At the low end of the ranking, values are background and their order means little.
# Target: SIX1 homeodomain (reference allele) (UniProt Q15475)
# Assay: universal protein binding microarray
# Conditions: Universal all-10-mer PBM (8x60K, AMADID 030236), 300 nM GST-tagged protein, Alexa Fluor 488 anti-GST; buffer, salt, pH and temperature not stated; high values mean tight binding; most listed sequences are background and not binding sites; double strand, one strand shown
row,Sequence,binding signal [E-score]
1,ACGGATAA,0.216
2,CGTCTATA,0.0955
3,CCCTACAC,0.0682
4,AACTGAGT,-0.0296
5,AGCCTACT,0.0136
6,ACACGCTA,0.00362
7,ATTTGGAA,-0.0717
8,CACCGGCG,0.0505
9,ATTACCCC,0.177
10,ATCGGGAA,0.154
11,CAAATCAA,-0.0232
12,ATTTCCAG,-0.184
13,GGCACAAA,-0.209
14,CTCTGCCA,-0.27
15,TCGTTTAA,-0.212
16,AGACCAGC,-0.229
17,CAGCGAGG,-0.134
18,CTCACGTA,0.177
19,CATGCTGA,0.00739
20,ACACGAAT,0.11
21,GGGTCCGA,-0.0314
22,AATTGTGG,-0.0402
23,ACATAGAT,0.0949
24,AAGGTGCT,-0.227
25,AGACTCAC,-0.256

row,Sequence,binding signal [E-score]
1,ACGTCCAA,-0.11
2,ATGGGACG,-0.206
3,TGGGAACA,0.0717
4,ATTGTTAG,-0.0882
5,ATGAAAAT,0.026
6,CAATCCGA,0.224
7,CTGCACGC,-0.198
8,AATCTAAC,-0.131
9,CCGCAAGA,0.079
10,ATCATCAG,0.154
11,AAAATTTA,-0.19
12,CACCTCGG,0.137
13,AAACCTAC,-0.134
14,CTGCTACC,-0.0583
15,CTAGGACC,-0.0987
16,ACCATTGC,-0.0913
17,GCCGCATA,0.124
18,GGGCGCTA,-0.104
19,GGAACACC,0.187
20,AAGCCTGT,-0.0406
21,AGATTGAC,0.0324
22,AAAAATGA,-0.0934
23,ATTGGGCG,-0.0198
24,ATGATAGC,0.379
25,ACAGTCGA,-0.201

row,Sequence,binding signal [E-score]
1,AAGCTAGA,-0.113
2,AACTCGGC,-0.3
3,CAGGTGGG,-0.15
4,ATTTTATA,0.132
5,CCAGTCGC,-0.131
6,ATGGGTAA,0.0327
7,AGTAGCCG,-0.0687
8,GGTTCCCA,-0.204
9,ACGCTTCC,-0.206
10,AAAGATCT,0.059
11,ACACTATC,0.268
12,AGTGCTCG,-0.211
13,GGTCGATA,0.271
14,CGTATCAG,0.465
15,CAGGACAG,-0.181
16,TGAAGTCA,-0.266
17,GAACCCTC,-0.133
18,ATAAAGAC,-0.0338
19,GACTGGGA,0.0333
20,CAGGGGTA,0.295
21,GCCAAGTA,-0.221
22,CGTGAAGC,-0.177
23,ACTCGCAC,-0.0596
24,GATGCCGC,0.0159
25,ATAATGTA,0.181

row,Sequence,binding signal [E-score]
1,CCATGACA,0.0931
2,ACCCTTGG,0.0265
3,GACACTGA,0.161
4,GGAATTTA,-0.0752
5,AGTCATGA,-0.000375
6,ACTCAACG,-0.0521
7,GGATGATA,0.443
8,ATGAACGG,-0.0546
9,AGCAACGC,-0.116
10,CTCCACAA,-0.089
11,AGTTACGA,0.0484
12,GCTAGCTA,-0.0717
13,CGACGTGA,-0.0301
14,CATAGTAC,0.0714
15,CCCGATCA,0.347
16,ACAGTGCA,-0.129
17,GGCCAAAA,-0.239
18,CCGACATC,0.0615
19,ATCTGAGC,0.0648
20,CGTCACGA,-0.0648
21,ATAAATCC,0.175
22,CTCGGCGA,0.151
23,ATACTCGG,0.316
24,ATCGTCTG,0.162
25,CATCCGTC,0.0183

row,Sequence,binding signal [E-score]
1,CCCCGACG,0.136
2,ATGCTCGA,-0.149
3,ATATAGCC,0.25
4,AGTTGGGA,-0.101
5,GCGGTCTA,-0.172
6,GCAGGCCC,-0.31
7,GGGGACCC,-0.164
8,ACTTTTAT,-0.199
9,CATCACCA,-0.146
10,AATCCTGA,0.0549
11,CAGGACTC,-0.145
12,CTAGAAAC,-0.194
13,GACCTATC,0.269
14,ATCATTGG,0.186
15,CGTATGAA,0.15
16,ACTGTACC,0.11
17,ATCGCTTG,0.156
18,GCGTACGC,-0.326
19,ATACTGAG,0.286
20,GGCTGACC,-0.23
21,CGGACTCC,-0.158
22,CAGATAAG,0.0588
23,ATTTAATC,0.21
24,CGGATACC,0.476
25,ACCTGTTG,-0.0405

row,Sequence,binding signal [E-score]
1,ATTACCGG,-0.00501
2,AGTCCGCC,-0.227
3,CATGTAAG,-0.037
4,GACCGAAA,-0.277
5,ATCGGGGG,0.223
6,CGGCTTGA,-0.0287
7,CCTGCTAA,-0.0332
8,CTGCTGCC,-0.156
9,AGATTCAT,0.11
10,CATATTCG,-0.021
11,ATTTTCGA,-0.00032
12,CCTTTGGA,-0.124
13,ATCAGATC,0.394
14,AGATCTGC,0.204
15,CCTTTGGC,-0.112
16,CTGTCCTA,-0.176
17,GGGACGAA,-0.243
18,ATAGGCAG,0.184
19,CTTTGGAC,-0.141
20,GACTGAAA,-0.253
21,GAAGCGAA,-0.377
22,CTAATCAG,0.0087
23,GCTGACAA,-0.164
24,ACGGGTGC,-0.0844
25,GAGACACC,0.306

row,Sequence,binding signal [E-score]
1,ACGCCGGG,0.0213
2,GATGCCTA,-0.00417
3,TTTAGAAA,-0.127
4,CCGATGTC,-0.156
5,TAGCGATA,0.38
6,CCGACCCG,0.108
7,ACACGCTC,-0.0153
8,AGCAACCA,-0.137
9,CAGGATCA,0.386
10,ATTCGCGA,0.107
11,AAATGCAA,-0.251
12,CTAATACA,0.0752
13,CCGGTGTC,0.431
14,AAGCTAGG,-0.131
15,GAGATCTA,0.172
16,ACTACTAG,0.146
17,AACGCCAG,-0.124
18,ACCTCTAG,0.0597
19,AGCGTGCC,-0.18
20,CGGGTCGA,0.161
21,CACGTTCG,-0.15
22,CCGAGCAA,-0.0656
23,AATTTAGG,-0.109
24,GCTTCTAA,-0.0185
25,GGTCAAAA,-0.133

row,Sequence,binding signal [E-score]
1,CAGGGCGC,-0.0924
2,CGCAATGC,-0.0481
3,AGTAACGA,-0.12
4,CGTTCGAA,-0.0975
5,AGCCACTA,-0.0645
6,CCCGGGAC,0.0225
7,ATTCGGGA,-0.0545
8,CCGCATCA,0.007
9,GCACTCGA,-0.148
10,CGCGGGAA,-0.119
11,GCAATACC,0.348
12,CGCACTGC,-0.133
13,GAGATCCC,0.378
14,CCAAATAA,-0.202
15,TAGGCGGA,0.0675
16,CCGGTTGA,0.105
17,AGTTTCAC,-0.144
18,CATGACCG,-0.0195
19,ACAACGTA,-0.139
20,GAGGGCTA,0.0266
21,CGTTGCAC,-0.134
22,TATTAAAA,0.18
23,CACCCCAG,0.221
24,GTCTAACA,-0.0192
25,CGTGGCCC,-0.216

row,Sequence,binding signal [E-score]
1,ACGTGATA,0.344
2,ATATTGTG,0.136
3,CGGAGAAC,0.0501
4,AGACTCAA,-0.0485
5,GACAGTGA,0.0434
6,CACCGTAG,-0.0238
7,ACCGGAAA,-0.0676
8,GCACCACA,-0.0302
9,AAAAAAAA,-0.172
10,CTGCTGGA,-0.0618
11,GCTATCAC,0.357
12,ATGTGGGC,-0.0895
13,GAGAGGTA,0.118
14,AGGGTCAA,-0.231
15,GTTTTACA,-0.109
16,ATCATGCA,0.225
17,GTAAAAAC,-0.177
18,ACCATCGT,-0.104
19,TCACGCAA,-0.0264
